According to the supplement of paper PMC3724861:
The other results are listed elsewhere or left out.

What follows are sequences tested on T1, Caupolican (Caup) homeodomain DNA-binding domain (assay: PBM E-score (8-mer, recovered from the published 9-mer minima) (E-score (dimensionless, -0.5 to 0.5)); Drosophila protein; higher = stronger relative binding preference, active = 0.31 or more).
T1 sequence: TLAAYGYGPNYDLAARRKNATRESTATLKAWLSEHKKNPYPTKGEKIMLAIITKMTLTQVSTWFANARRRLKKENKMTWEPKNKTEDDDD
Method in brief: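 Caup's homeodomain DNA-binding domain (residues 214-303) was produced by in vitro transcription and translation and applied at 100 nM to custom-designed protein binding microarrays. Each value is an enrichment score giving relative binding preference for a short DNA word; higher means stronger. Published 9-mer scores were the minimum of their two constituent 8-mer scores, and the 8-mer values were recovered from those minima. A cutoff of 0.31 marks candidate binding sequences.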

Row | Sequence | PBM E-score
1 | AGAGCGCA | inactive: -0.172
2 | ATCCCAAT | ≥ 0.0794
3 | AATTTGGG | inactive: 0.0832
4 | ACTGCGAG | inactive: -0.104
5 | AGTGCCTA | inactive: -0.0569
6 | ATTGCCTA | inactive: 0.0171
7 | CGCGTCCC | inactive: -0.204
8 | CTGCGTCA | inactive: -0.112
9 | CACCGGCA | inactive: -0.138
10 | AGTTCGTC | inactive: 0.0497
11 | ATGTATAG | inactive: 0.276
12 | CTTGCCTA | inactive: -0.0277
13 | AGACTGAC | inactive: -0.0337
14 | AGTAATTG | inactive: 0.142
15 | GTTAAGGA | inactive: 0.00704
16 | ACTGGGCT | inactive: -0.146
17 | ACGAGATC | inactive: 0.029
18 | GCACGCGC | inactive: -0.208
19 | GATCTTAA | inactive: -0.00294
20 | ACGCTCCG | inactive: -0.222
21 | AGGCTTCG | inactive: -0.26

Row | Sequence | PBM E-score
22 | CTTCAAGA | inactive: 0.0664
23 | GACACGTC | inactive: 0.225
24 | GATCTTAC | inactive: 0.0573
25 | GATATTAA | inactive: 0.0889
26 | AGCGAGCG | inactive: -0.0955
27 | AAGCTCAA | ≥ -0.0103
28 | CTCTCTTC | inactive: -0.194
29 | GCTGAAGC | inactive: -0.14
30 | AGGCGGAC | inactive: -0.156
31 | AGTTACGA | inactive: 0.0856
32 | CGACATGC | active: 0.386
33 | AATACACG | active: 0.343
34 | AGCCCTCC | inactive: -0.284
35 | CGAGGCGA | inactive: -0.193
36 | AACTTTAG | inactive: 0.0331
37 | GACTTGGA | inactive: -0.0172
38 | GATAACCC | inactive: -0.0449
39 | ATTGTCCC | inactive: 0.0502
40 | CGGTCTGC | inactive: -0.148
41 | AATTCCAT | ≥ 0.134
42 | CGACGAAA | inactive: 0.0857

Row | Sequence | PBM E-score
43 | ACGATGAA | inactive: 0.0686
44 | CAAATGGC | inactive: -0.0673
45 | ACCCGGTG | inactive: -0.15
46 | AACGCAGG | inactive: -0.121
47 | CCGGTATC | inactive: -0.106
48 | CGTTGGAC | inactive: -0.0179
49 | ACGGTGGC | inactive: -0.158
50 | AAAGAAGA | inactive: 0.0183
51 | AAGGGCGG | inactive: -0.157
52 | CGTACACG | active: 0.341
53 | AGCACTCA | inactive: -0.103
54 | CATCATCA | inactive: 0.116
55 | GACATTTA | inactive: 0.177
56 | CTATCGAA | inactive: 0.0587
57 | ACGCGGAA | inactive: -0.0044
58 | AACCACCG | inactive: -0.0561
59 | GTACTTCA | inactive: 0.0742
60 | ACCGTAGA | inactive: 0.0263
61 | CAGCTGCG | inactive: -0.195
62 | CATCTCAG | inactive: -0.0232
